Screen size: about 320,000 compounds; about 9,100 (2.8%) were called active. Inconclusive means that the source gave no clear call. Such entries were picked first, then a sample of the others. The call rests on the fitted dose curve; in most records, active means well fitted activation curve with a large enough effect; inconclusive means small, poorly fitted or top-dose-only effect; inactive means no such curve, though single readings can be large or run the other way. Where the call is inconclusive, the potency comes from a doubtful curve fit.
Assay: qHTS Assay for Rab9 Promoter Activators; further: nearly all actives have a fitted effect of over 60% in size
Conditions: Huh7 Rab9 promoter-luciferase reporter, luminescence, 24 h; series mostly up to 9.22 µM
Outline: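 Cell-based reporter: Huh7 stable for Rab9 promoter-driven luciferase, plated in reduced-serum medium with 10% FBS at 1500 cells/well, compound-treated 24 h at 37 °C, luminescence read after 10 min reagent.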
Potency means the concentration at half of the fitted maximal effect; tags describe the fitted curve by direction and shape.

Potency, inconclusive:
O=C(Cc1cnn(-c2ccccc2)c1)c1ccc(O)c(O)c1O 5.62 µM [activator, single point], C/C(=C\C(=O)c1cccnc1)Nc1ccc(C)c(C)c1 3.55 µM [activator, partial curve], Cc1nnc(SCC(=O)N2CC(=O)Nc3ccccc32)n1-c1ccccc1 1.26 µM [activator, single point], CC1=NN(c2ccccc2)C(=O)/C1=C/c1c(O)n(-c2ccc(F)c(Cl)c2)[nH]c1=O 3.55 µM [activator, single point], CCn1c(SCC(=O)c2c[nH]c3ccccc23)nc2cc(S(=O)(=O)N3CCOCC3)ccc21 0.708 µM [activator, single point], COc1ccc(NC(=O)c2cc(-c3ccccc3Cl)on2)cc1 2.82 µM [activator, partial curve], Clc1ccc(OCc2cn3cccnc3n2)c2ncccc12 4.47 µM [activator, partial curve], O=C(Nc1cccnc1Cl)c1cc([N+](=O)[O-])ccc1Cl 0.501 µM [activator, full curve], O=C(Nc1ccc2nc(-c3ccco3)[nH]c2c1)c1ccco1 4.47 µM [activator, partial curve, poor fit], CCOc1ccc(C(=S)NC2CCCCC2)cc1 3.16 µM [activator, partial curve], O=C(Nc1ccccc1)c1ccc(COc2ccccc2)cc1 3.55 µM [activator, partial curve], CC(C)Cc1nnc(NC(=O)C2=COCCO2)s1 4.47 µM [activator, partial curve], CCc1nnc(NC(=O)C=C(C)C)s1 3.98 µM [activator, partial curve], COc1ccccc1-c1nnc(NC(=O)CSc2nncn2C)s1 3.16 µM [activator, partial curve], O=C(Nc1nccc(-c2cccs2)n1)c1cccs1 2.82 µM [activator, partial curve], COc1cccc(C(=O)Nc2cccc(-c3ccc(N4CCOCC4)nn3)c2)c1 2.82 µM [activator, partial curve], CCCCNC(=O)CCC(=O)Nc1ccc2nc(N3CCCCC3)cc(C)c2c1 2.24 µM [activator, partial curve], Cc1ccc(-c2onc3ccc(C4OCCO4)cc23)cc1 3.16 µM [activator, partial curve], CCOc1ccc2nc(SCc3cccc(C)c3)nc(C)c2c1 3.16 µM [activator, partial curve], CCn1c(O)c(C=NC2CCCC(C)C2C)sc1=S (stereo unspecified) 1.58 µM [activator, partial curve], CCc1cccc(C)c1NC(=O)C1CC=CCC1C(=O)O (stereo unspecified) 5.62 µM [activator, single point], O=C(N/N=C/c1c[nH]c2ccccc12)c1cccs1 3.55 µM [activator, partial curve], COc1ccc(/C=N/NC(=O)c2nonc2C)cc1 5.62 µM [activator, single point], Cn1c(SCC(=O)Nc2cccc(F)c2)nc2c([nH]c3ccccc32)c1=O 0.631 µM [activator, partial curve], CC(C)c1ccc(NC(=O)Nc2cnccn2)cc1 0.398 µM [activator, full curve, poor fit], Oc1ccc(NCc2cccc(OCc3ccc(F)cc3)c2)cc1 1.12 µM [activator, single point], COC(=O)c1cccc(NC(=O)NC(=O)c2ccc(Cl)cc2)c1 0.447 µM [activator, partial curve, poor fit], COc1ccc(CCNc2ncccc2C#N)cc1OC 2.51 µM [activator, partial curve], O=C1C=C(Nc2ccc(O)cc2)C(=O)c2ccccc21 3.55 µM [activator, single point], O=C(CSc1nnc(-c2ccc(Cl)cc2)o1)N1CCOCC1 2.24 µM [activator, partial curve], NS(=O)(=O)c1ccc(O)c(NC(=O)c2ccc([N+](=O)[O-])cc2)c1 0.01 µM [activator, partial curve], Cc1ccsc1/C=N/NC(=O)c1ccc2nc[nH]c2c1 5.62 µM [activator, single point], CN1CCN(/N=C/c2ccc(Br)cc2)CC1 5.01 µM [activator, single point], COc1ccc(-c2ccc(SCC(=O)Nc3cc(C)on3)nn2)cc1OC 2.82 µM [activator, partial curve], COCC(=O)Nc1ccc(C(=O)Nc2ccccc2Cl)cc1 2.24 µM [activator, partial curve], CC(C)c1cc(C(F)(F)F)n2nc(C(=O)Nc3ccc4c(c3)OCO4)cc2n1 4.47 µM [activator, partial curve], Cc1cc(C(=O)CSc2nc3ccccc3c(=O)[nH]2)c(C)n1C 2.24 µM [activator, partial curve]

Potency, active:
CN(C)CCCNc1cc(C(C)(C)C)nc2c(-c3ccccc3)cnn12 3.98 µM, Cc1ccc(NC(=O)c2ccn(C)n2)c(Br)c1 3.16 µM, CCOc1ccc2nc(SCC3CC3(Cl)Cl)[nH]c2c1 (stereo unspecified) 3.16 µM, O=C(Nc1ccc(-c2cnco2)cc1)c1ccccc1 2.51 µM, Cc1cc(NC(C)c2ccccc2)n2ncc(-c3ccccc3)c2n1 (stereo unspecified) 3.98 µM, COCc1nnc(NC(=O)c2ccc(OC)cc2OC)s1 2.51 µM, COc1cccc(C(=O)NNC(=O)c2ccccc2)c1 3.55 µM, CCN1CCN(Cc2ccccc2NC(=O)Nc2ccc(C)cc2)CC1 3.98 µM, Cc1ccnc(NC(=O)c2cc3cc(F)ccc3s2)c1 1.41 µM, COc1ccccc1NC(=O)Nc1ccc2c(c1)nc(C)n2C 0.562 µM, Cc1csc(NC(=O)c2nc3nc(C)cc(C)n3n2)n1 3.98 µM, O=C(/C=C/c1ccco1)Nc1ccc(F)cc1 3.98 µM, Cn1c(NC(=O)/C=C\c2ccccc2)cc(=O)n(C)c1=O 3.55 µM, Cc1sc(NC(=O)C2CCCCC2C(=O)O)c(C(N)=O)c1-c1ccccc1 (stereo unspecified) 3.55 µM, COc1cc(SC)ccc1C(=O)Nc1ccc2c(c1)OCCO2 0.891 µM, COc1ccc(C(=O)Nn2c(SCc3ccc([N+](=O)[O-])cc3)nc3ccccc3c2=O)cc1 3.98 µM, Cc1csc(NC(=O)c2ccc(Cl)cc2[N+](=O)[O-])n1 4.47 µM, N/C(=N\OC(=O)c1ccc(Cl)cc1Cl)c1cccnc1 1.58 µM, N/C(=N\OC(=O)c1ccc(Cl)c(Cl)c1)c1ccccn1 4.47 µM

Potency, inactive:
Cc1ccc(/C=N/NC(=O)c2cc(C)oc2C)o1, CNc1ncnc2c1ncn2[C@@H]1O[C@H](CO)[C@@H](O)[C@H]1O, O=C(CCl)NC(Cc1c[nH]c2ccc(OCc3ccccc3)cc12)C(=O)O (stereo unspecified), Cn1c(=O)c(=O)n(C)c2cc(S(=O)(=O)N3CC(=O)N(CCc4ccccc4)C(=O)C3)ccc21, CC1(c2ccccc2Cl)NC(=O)N(CC(=O)N2c3ccccc3NC(=O)C2(C)C)C1=O (stereo unspecified), COc1ccc(OC)c(NC(=O)c2csc(Cl)c2OC)c1, CCOc1ccc(C(=O)c2ccccc2C(=O)O)cc1OCC, Cc1cccc(NC(=O)CCC(=O)N/N=C/c2ccco2)c1, CC(=O)N(C)c1cccc(-c2ccc3nnc(C)n3n2)c1, COc1ccc(CN2C(=O)c3ccccc3C2=O)cc1C(=O)N(C)CC(=O)Nc1ccc(F)cc1, O=C(Nc1cccc2ccccc12)c1cnccn1, COc1ccccc1CC(=O)OC(C)C(=O)Nc1ccc(S(=O)(=O)N2CCCCC2)cc1 (stereo unspecified), Cc1ccc(S(=O)(=O)c2c(O)c3ccc(C(=O)O)cc3[nH]c2=O)cc1, CC1CCCN(c2nc3c(c(=O)n(C)c(=O)n3C)n2Cc2ccccc2)C1 (stereo unspecified), COc1cc(NC(=O)COC(=O)c2n[nH]c3ccccc23)c(C)cc1[N+](=O)[O-], Cc1ccc(CNC(=O)COC(=O)COc2ccc(C#N)cc2)cc1, Cn1cc(CN2CCC(C(O)c3cccs3)CC2)c(-c2ccccc2F)n1 (stereo unspecified), CCC(=O)N/C(N)=N/c1nc(C)c2cc(C)c(C)cc2n1, Nc1nc(COC(=O)CCC(=O)c2ccc(Cl)cc2)nc(Nc2ccccc2)n1, O=S(=O)(c1cccc(Cl)c1)N1CCCC1, Cc1ccc(S(=O)(=O)Cn2nnnc2C(CC(C)C)N2CCN(C)CC2)cc1 (stereo unspecified), COc1cc(OC)cc(C(=O)Nc2ccccc2N2CCOCC2)c1, Cc1nnc(NC(=O)c2cc(-c3ccco3)nc3ccccc23)s1, N#Cc1c(Oc2ccc3ccccc3c2)sc(C(=O)c2ccccc2)c1N, Cc1cccc(NC(=O)CSc2nnc3ccc(-c4ccccn4)nn23)c1

From PubChem BioAssay AID485297 (National Center for Advancing Translational Sciences (NCATS), 2010)
